Measured values from the supplement of paper PMC7826260.
The other results are listed elsewhere or left out. Viral Rep nickase domains cut single-stranded DNA in vitro (3 µM enzyme, 1 h, 37 °C); shown is the middle of each 90-letter strand. The score is log2 (uncut reads / reads without enzyme); the lower, the more was cut; hits are not called. Because reads are shares of a total, they shift together, so uncut sequences can rise above 0 when many others are cut.

Assays:
Assay in all cases: uncleaved DNA left, log2 of reads against the no-enzyme library (log2 ratio); higher = less cleavage (more negative = more Rep cleavage of the k-mer); sequences stand for … in CTCGTCCG…ACCGGAGA
[1] = test system: T1, Rep nickase domain of Muscovy duck circovirus
T1 sequence (residues 1-111 of Rep, tag left off): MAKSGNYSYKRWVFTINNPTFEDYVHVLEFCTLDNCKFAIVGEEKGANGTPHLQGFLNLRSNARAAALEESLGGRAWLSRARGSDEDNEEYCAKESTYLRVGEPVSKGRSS
Protocol: (§1)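 A pool of 90-nt single-stranded DNAs with seven random bases just before the constant AC of the nick site (name = the seven bases) was cut by 3 µM recombinant His6-SUMO-tagged Rep nickase domain (300 nM DNA, 50 mM HEPES pH 8.0, 50 mM NaCl, 1 mM MnCl2, 1 h, 37 °C, three replicates). Uncut DNA was amplified and sequenced.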

[2] = test system: T2, Rep nickase domain of banana bunchy top virus
T2 sequence (residues 1-94 of Rep, tag left off): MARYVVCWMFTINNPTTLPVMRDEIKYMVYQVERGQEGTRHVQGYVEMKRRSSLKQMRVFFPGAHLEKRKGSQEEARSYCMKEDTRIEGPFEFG
Protocol: as §1

[3] = test system: T3, Rep nickase domain of cabbage leaf curl virus
T3 sequence (residues 1-116 of Rep, tag left off): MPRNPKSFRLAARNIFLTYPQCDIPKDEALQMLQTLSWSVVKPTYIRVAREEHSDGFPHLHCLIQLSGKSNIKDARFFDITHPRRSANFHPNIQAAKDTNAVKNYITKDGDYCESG
Protocol: as §1

[4] = test system: T4, Rep nickase domain of chickpea chlorotic dwarf virus
T4 sequence (residues 1-124 of Rep, tag left off): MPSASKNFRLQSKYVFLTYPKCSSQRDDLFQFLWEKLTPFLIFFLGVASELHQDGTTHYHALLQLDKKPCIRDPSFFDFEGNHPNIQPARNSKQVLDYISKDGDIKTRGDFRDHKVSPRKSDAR
Protocol: as §1

[5] = test system: T5, Rep nickase domain of faba bean necrotic yellows virus
T5 sequence (residues 1-98 of Rep, tag left off): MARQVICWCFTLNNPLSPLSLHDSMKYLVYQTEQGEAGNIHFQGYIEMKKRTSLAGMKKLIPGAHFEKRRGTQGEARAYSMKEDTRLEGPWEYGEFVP
Protocol: as §1

[6] = test system: T6, Rep nickase domain of maize striate mosaic virus
T6 sequence (residues 1-117 of Rep, tag left off): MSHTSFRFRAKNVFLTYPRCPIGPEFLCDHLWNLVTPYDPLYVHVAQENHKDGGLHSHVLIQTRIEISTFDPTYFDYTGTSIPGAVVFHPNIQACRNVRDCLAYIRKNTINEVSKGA
Protocol: as §1

[7] = test system: T7, Rep nickase domain of porcine circovirus 2
T7 sequence (residues 2-116 of Rep, tag left off): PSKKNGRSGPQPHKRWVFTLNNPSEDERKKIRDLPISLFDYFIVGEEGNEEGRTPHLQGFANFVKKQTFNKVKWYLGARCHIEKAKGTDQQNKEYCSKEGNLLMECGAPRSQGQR
Protocol: as §1

[8] = test system: T8, Rep nickase domain of tomato golden mosaic virus
T8 sequence (residues 1-124 of Rep, tag left off): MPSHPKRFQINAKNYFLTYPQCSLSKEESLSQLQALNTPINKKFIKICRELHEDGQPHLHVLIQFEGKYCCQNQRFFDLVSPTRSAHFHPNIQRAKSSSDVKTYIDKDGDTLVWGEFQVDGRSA
Protocol: as §1

[9] = test system: T9, Rep nickase domain of tomato yellow leaf curl virus
T9 sequence (residues 1-136 of Rep, tag left off): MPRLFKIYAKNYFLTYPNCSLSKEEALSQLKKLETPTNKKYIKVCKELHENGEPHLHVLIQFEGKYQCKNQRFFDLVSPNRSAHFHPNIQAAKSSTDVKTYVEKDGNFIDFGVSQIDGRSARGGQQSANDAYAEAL
Protocol: as §1

[10] = test system: T10, Rep nickase domain of wheat dwarf virus
T10 sequence (residues 1-137 of Rep, tag left off): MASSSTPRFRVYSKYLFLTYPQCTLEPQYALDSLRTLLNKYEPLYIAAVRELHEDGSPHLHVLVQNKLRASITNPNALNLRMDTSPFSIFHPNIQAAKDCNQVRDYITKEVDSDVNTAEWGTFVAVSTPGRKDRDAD
Protocol: as §1

| Sequence | uncleaved DNA left (log2) [1] | uncleaved DNA left (log2) [2] | uncleaved DNA left (log2) [3] | uncleaved DNA left (log2) [4] | uncleaved DNA left (log2) [5] | uncleaved DNA left (log2) [6] | uncleaved DNA left (log2) [7] | uncleaved DNA left (log2) [8] | uncleaved DNA left (log2) [9] | uncleaved DNA left (log2) [10] |
| --- | --- | --- | --- | --- | --- | --- | --- | --- | --- | --- |
| GACTCCG | 0.0071 | 0.0439 | -0.69 | -0.729 | 0.0473 | -1.06 | 0.0643 | 0.0607 | -0.0965 | -0.116 |
| ATATGCA | -0.0737 | -0.0681 | -0.624 | -0.987 | 0.0702 | -1.17 | -0.0125 | 0.0537 | 0.111 | -0.0509 |
| CGCAACA | 0.0227 | 0.0918 | -0.106 | -1.57 | 0.0414 | -0.328 | 0.0253 | 0.0578 | 0.0474 | -0.034 |
| AATCGCG | -0.012 | -0.0076 | -0.556 | 0.981 | -0.0567 | -0.00817 | 0.0309 | -0.0658 | -0.0323 | -0.0617 |
| GGGTAAT | -0.00811 | 0.0877 | 0.86 | 1.96 | -0.119 | 2.26 | -1.09 | 0.0482 | -0.0524 | 0.137 |
| TTTGGCA | 0.0869 | 0.0485 | -0.127 | -0.589 | 0.0818 | -0.931 | -0.00475 | -0.0326 | -0.0397 | 0.0875 |
| CTTGGTT | 0.0724 | -0.192 | -0.0538 | -1.02 | 0.0427 | 0.0569 | -0.762 | -0.0111 | -0.128 | -0.209 |
| GCCGAAA | -0.0111 | -0.0721 | 0.23 | 0.572 | -0.0522 | 0.345 | 0.231 | -0.00524 | 0.1 | 0.256 |
| ATGGGCG | 0.0763 | 0.0451 | -0.533 | 0.89 | 0.126 | -0.168 | 0.244 | 0.111 | 0.196 | 0.134 |
| CCATAAG | 0.0103 | 0.0656 | -0.105 | 1.25 | 0.213 | 0.562 | 0.258 | 0.0145 | 0.276 | 0.052 |
| TGCAGTT | -0.0976 | -0.0718 | -0.238 | -1.77 | -0.0833 | -0.802 | -0.253 | -0.042 | -0.0165 | -0.19 |
| GATCAAC | 0.014 | 0.013 | 0.239 | 0.108 | -0.0723 | 0.788 | 0.0025 | -0.0236 | 0.0748 | 0.0608 |
| GACGCTC | -0.204 | -0.169 | 0.142 | 0.0903 | -0.139 | 0.206 | -0.131 | -0.202 | -0.143 | -0.152 |
| CAACCCC | -0.603 | -0.0813 | -0.142 | -1.5 | -0.108 | -0.329 | -1.45 | -0.0796 | -0.103 | -0.121 |
| AGATAAG | 0.0464 | 0.152 | -0.778 | -0.032 | 0.131 | -1 | 0.181 | -0.0375 | 0.0441 | 0.00265 |
| TGCCAAG | -0.266 | -0.229 | -0.671 | -0.593 | -0.137 | -0.949 | -0.0977 | -0.0175 | -0.205 | -0.117 |
| TCGTACG | -0.197 | -0.0779 | -0.791 | -0.821 | 0.0481 | -1.35 | 0.0923 | -0.0552 | -0.147 | -0.103 |
| CAGTTCT | -2.4 | -3.49 | -1.11 | -3.34 | -3.13 | -0.863 | -3.85 | -0.364 | -0.0744 | -0.273 |
| CGCCCCG | -0.0349 | 0.0018 | -0.566 | -0.174 | -0.00854 | -0.651 | 0.0112 | -0.0416 | -0.132 | -0.00153 |
| GCCGGTG | -0.0682 | -0.177 | -0.309 | -0.185 | -0.1 | -0.261 | 0.00766 | -0.151 | -0.144 | -0.132 |
| CCACCCC | -0.137 | -0.0423 | 0.0309 | -0.525 | 0.0401 | -0.277 | -0.832 | -0.194 | -0.144 | -0.0754 |
| CATGTCA | -0.16 | 0.0611 | -0.17 | -1.41 | -0.0112 | -0.99 | -0.061 | -0.0751 | 0.141 | 0.00336 |
| AATCAGG | 0.0894 | 0.0507 | 0.433 | 1.12 | 0.175 | 0.8 | 0.267 | 0.158 | -0.0912 | 0.243 |
| GTAAAAA | 0.152 | 0.112 | 0.31 | 0.952 | 0.0796 | 1.58 | 0.189 | 0.254 | 0.11 | 0.148 |
| AGTTGTC | 0.0668 | -0.06 | -0.17 | -0.164 | 0.0238 | -0.927 | -0.0459 | -0.0258 | 0.0417 | -0.116 |
| GGACCTG | 0.0693 | 0.0555 | 0.3 | 1.09 | -0.0364 | 1.75 | 0.0857 | 0.0128 | 0.0694 | 0.103 |
| GACCTTT | -0.023 | -0.0978 | 0.105 | -1.13 | -0.134 | 0.81 | -1.17 | -0.0558 | -0.0166 | -0.0525 |
| CTACGCC | 0.0417 | 0.0145 | -0.131 | -0.598 | 0.0763 | -0.618 | -0.00888 | 0.0271 | 0.0254 | -0.147 |
| TCACCGC | -0.0622 | -0.134 | -0.354 | -0.819 | -0.101 | -0.798 | -0.151 | -0.0715 | -0.181 | -0.0753 |
| CAAGTAC | -0.0754 | -0.0683 | -0.358 | -0.569 | 0.0288 | -0.891 | 0.024 | -0.0347 | -0.0965 | -0.048 |
